Test [1] has as its target AGO2 WT (phosphosite mutant background) S387D + S824A + S828D + S831D + S834A (UniProt Q9UKV8). Briefly: RNA Bind-n-Seq (nitrocellulose filter binding and sequencing). To be noted: constant regions annealed to DNA blockers; guide miR-122 5' phosphate; 30 mM Tris pH 8.0, 100 mM potassium acetate, 2 mM magnesium acetate, 0.5 mM TCEP, 0.005% NP-40, 0.01 mg/ml yeast tRNA; 3 nM AGO2-miR-122, 100 nM RNA library …; high values mean tight binding.

Test [2] deals with AGO2 F182del S387D + S824A + S828D + S831D + S834A + del182-182 (UniProt Q9UKV8). Described as above. To be noted: constant regions annealed to DNA blockers; guide miR-122 5' phosphate; 30 mM Tris pH 8.0, 100 mM potassium acetate, 2 mM magnesium acetate, 0.5 mM TCEP, 0.005% NP-40, 0.01 mg/ml yeast tRNA; 3 nM AGO2-miR-122, 100 nM RNA library …; high values mean tight binding.

This is a selection; strong and weak results do not stand in their true shares. At the low end of the ranking the order means little. This is one part of the list.

“GAGUUCUACAGUCCGACGAUCCCAACGCGCUCCGCACCUGGAAUUCUCGGGUGCCAA / UGGAGUGUGACAAUGGUGUUUG / GATCGTCGGACTGTAGAACTC / TTGGCACCCGAGAATTCCA”: the binding signal (fold enrichment over input) in test [1] came to 1.39; in test [2], 7.66.
“GAGUUCUACAGUCCGACGAUCCCAACACACUCUGCACCUGGAAUUCUCGGGUGCCAA / UGGAGUGUGACAAUGGUGUUUG / GATCGTCGGACTGTAGAACTC / TTGGCACCCGAGAATTCCA”: the results for the binding signal (fold enrichment over input) in test [1] and in test [2] were 0.933 and 2.4, respectively.
With “GAGUUCUACAGUCCGACGAUCCCAACGCAUCCCACACCUGGAAUUCUCGGGUGCCAA / UGGAGUGUGACAAUGGUGUUUG / GATCGTCGGACTGTAGAACTC / TTGGCACCCGAGAATTCCA”, the figures for the binding signal (fold enrichment over input) in test [1] and in test [2] were 0.116 and 0.282, respectively.
For the sequence “GAGUUCUACAGUCCGACGAUCCCAACACGCCUUACACCUGGAAUUCUCGGGUGCCAA / UGGAGUGUGACAAUGGUGUUUG / GATCGTCGGACTGTAGAACTC / TTGGCACCCGAGAATTCCA”, the binding signal (fold enrichment over input) in test [1] came to 0.118; in test [2] it was 0.246.
As to “GAGUUCUACAGUCCGACGAUCCCAACGUGUCCCGCACCUGGAAUUCUCGGGUGCCAA / UGGAGUGUGACAAUGGUGUUUG / GATCGTCGGACTGTAGAACTC / TTGGCACCCGAGAATTCCA”, the binding signal (fold enrichment over input) in test [1] turned out to be 0.0896; in test [2], 0.038.
As to “GAGUUCUACAGUCCGACGAUCCCAACGUAUUUCGCACCUGGAAUUCUCGGGUGCCAA / UGGAGUGUGACAAUGGUGUUUG / GATCGTCGGACTGTAGAACTC / TTGGCACCCGAGAATTCCA”, the binding signal (fold enrichment over input) in test [1] was 0.0879; in test [2] it was 0.0439.
As to “GAGUUCUACAGUCCGACGAUCCCAACGUGCCUCGCACCUGGAAUUCUCGGGUGCCAA / UGGAGUGUGACAAUGGUGUUUG / GATCGTCGGACTGTAGAACTC / TTGGCACCCGAGAATTCCA”, the binding signal (fold enrichment over input) in test [1] was found to be 0.107; in test [2], 0.052.
As for “GAGUUCUACAGUCCGACGAUCCCAACGUGUCUUGCACCUGGAAUUCUCGGGUGCCAA / UGGAGUGUGACAAUGGUGUUUG / GATCGTCGGACTGTAGAACTC / TTGGCACCCGAGAATTCCA”, the results for the binding signal (fold enrichment over input) in test [1] and in test [2] were 0.0861 and 0.0322, respectively.
For “GAGUUCUACAGUCCGACGAUCCCAACGCACCUCGCACCUGGAAUUCUCGGGUGCCAA / UGGAGUGUGACAAUGGUGUUUG / GATCGTCGGACTGTAGAACTC / TTGGCACCCGAGAATTCCA”, in that order: 0.0966 and 0.0977.
Take “GAGUUCUACAGUCCGACGAUCCCAACAUGUUUCACACCUGGAAUUCUCGGGUGCCAA / UGGAGUGUGACAAUGGUGUUUG / GATCGTCGGACTGTAGAACTC / TTGGCACCCGAGAATTCCA”: the binding signal (fold enrichment over input) in test [1] turned out to be 0.125; in test [2] it was 0.814.
Taken in the same sequence, the figures for “GAGUUCUACAGUCCGACGAUCCCAACGCGCCCUGCACCUGGAAUUCUCGGGUGCCAA / UGGAGUGUGACAAUGGUGUUUG / GATCGTCGGACTGTAGAACTC / TTGGCACCCGAGAATTCCA” were 0.109 and 0.0476.
As for “GAGUUCUACAGUCCGACGAUCCCAACAUGCCCCACACCUGGAAUUCUCGGGUGCCAA / UGGAGUGUGACAAUGGUGUUUG / GATCGTCGGACTGTAGAACTC / TTGGCACCCGAGAATTCCA”, the binding signal (fold enrichment over input) in test [1] was 0.116; in test [2] it was 0.191.
For the sequence “GAGUUCUACAGUCCGACGAUCCCAACACACCUUGCACCUGGAAUUCUCGGGUGCCAA / UGGAGUGUGACAAUGGUGUUUG / GATCGTCGGACTGTAGAACTC / TTGGCACCCGAGAATTCCA”, the figures for the binding signal (fold enrichment over input) in test [1] and in test [2] were 0.105 and 0.318, respectively.
For “GAGUUCUACAGUCCGACGAUCCCAACACGUUUUACACCUGGAAUUCUCGGGUGCCAA / UGGAGUGUGACAAUGGUGUUUG / GATCGTCGGACTGTAGAACTC / TTGGCACCCGAGAATTCCA”, the figures for the binding signal (fold enrichment over input) in test [1] and in test [2] were 0.116 and 0.204, respectively.
“GAGUUCUACAGUCCGACGAUCCCAACGUAUUUUACACCUGGAAUUCUCGGGUGCCAA / UGGAGUGUGACAAUGGUGUUUG / GATCGTCGGACTGTAGAACTC / TTGGCACCCGAGAATTCCA”: the binding signal (fold enrichment over input) came to 0.109 in test [1] and 0.0626 in test [2].
On to “GAGUUCUACAGUCCGACGAUCCCAACACGCCUCGCACCUGGAAUUCUCGGGUGCCAA / UGGAGUGUGACAAUGGUGUUUG / GATCGTCGGACTGTAGAACTC / TTGGCACCCGAGAATTCCA”, for which the binding signal (fold enrichment over input) turned out to be 0.095 in test [1] and 0.0915 in test [2].
For “GAGUUCUACAGUCCGACGAUCCCAACGCGCCCCGCACCUGGAAUUCUCGGGUGCCAA / UGGAGUGUGACAAUGGUGUUUG / GATCGTCGGACTGTAGAACTC / TTGGCACCCGAGAATTCCA”, in that order: 0.12 and 0.0509.
Regarding “GAGUUCUACAGUCCGACGAUCCCAACGCAUUCUGCACCUGGAAUUCUCGGGUGCCAA / UGGAGUGUGACAAUGGUGUUUG / GATCGTCGGACTGTAGAACTC / TTGGCACCCGAGAATTCCA”, the binding signal (fold enrichment over input) in test [1] was 0.0933; in test [2] it was 0.0388.
Taken in the same sequence, the figures for “GAGUUCUACAGUCCGACGAUCCCAACAUACCUUACACCUGGAAUUCUCGGGUGCCAA / UGGAGUGUGACAAUGGUGUUUG / GATCGTCGGACTGTAGAACTC / TTGGCACCCGAGAATTCCA” were 0.108 and 0.118.
